According to the RNAGym collection of RNA variant scans (doi:10.1073/pnas.2313332121):
This sample is rich in variants without activity.

B1: TPR 5TU (parent)
chain: GGAUCUUCUCGAUCUAACAAAAAAGACAAAUCUGCCACAAAGCUUGAGAGCAUCUUCGGAUGCAGAGGCGGCAGCCUUCGGUGGCGCGAUAGCGCCAACGUUCUCAACUAUGACACGCAAAACGCGUGCUCCGUUGAAUGGAGUUUAUCAUG

Variants of: B1
Assay: polymerase ribozyme fitness, log enrichment relative to wild type (log ratio); higher = more active; in vitro selection for triplet polymerase activity
Method in brief: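 Input and output libraries were sequenced on Illumina after a single in vitro selection round, run in triplicate on PCR-built, transcribed mutant libraries of each subunit of a heterodimeric triplet polymerase ribozyme. Selection annealed libraries to a biotinylated primer, the partner subunit and triplets, incubated them frozen at −7 °C, then gel-excised extended constructs for streptavidin-bead capture and RT-PCR. Genotypes with ≥10 input reads and ≥1 read per output were kept. Fitness is the logarithm, taken in base 2, of genotype enrichment divided by wild-type enrichment, using inverse-variance-weighted replicate averages.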

First: C8U A28G G34A C36U G86U A91G A110U
Second: C8A G11A U13A G70A C93A U102A
The “polymerase ribozyme fitness (log ratio)” value of the first is higher: -4.19 for the first, at most -4.2 for the second.

C8U A37C G46C G74A G86U U90A C131A and U7G U9C C14G A19U C96G A107G cannot be ordered by “polymerase ribozyme fitness (log ratio)” value: at most -4.2 for the first, at most -4.2 for the second.

U7G A12G A24U A37C A49C G92U and C8A C43U G46A A73G C85U U134G U151A cannot be ordered by “polymerase ribozyme fitness (log ratio)” value: at most -4.2 for the first, at most -4.2 for the second.

C8U C75A G86U A91U A122G G136A and U7C C32A U56A G58U C93U G112A A115U cannot be ordered by “polymerase ribozyme fitness (log ratio)” value: at most -4.2 for the first, at most -4.2 for the second.

Compared with U9A A30G A37G C51A U90A A121C U144A, C8U A12G A28U G74A G81A C99U is higher in “polymerase ribozyme fitness (log ratio)” value: at most -4.2 for the first, -4.18 for the second.

C8G A23U A37C G92U and C8A A26U A49U G83U U101G C118U A138C cannot be ordered by “polymerase ribozyme fitness (log ratio)” value: at most -4.2 for the first, at most -4.2 for the second.

C8G C57U G59A C69G G88U C96G A120U and C8G A22U G92U C95U U104G cannot be ordered by “polymerase ribozyme fitness (log ratio)” value: at most -4.2 for the first, at most -4.2 for the second.

U7G A16C C54A G67A G68C G81C C96G and U7C C35A U61A A64U A150G cannot be ordered by “polymerase ribozyme fitness (log ratio)” value: at most -4.2 for the first, at most -4.2 for the second.

U7G U55G U82C C87U C93A U134C G143A and U7C A64C C79G cannot be ordered by “polymerase ribozyme fitness (log ratio)” value: at most -4.2 for the first, at most -4.2 for the second.

C8U C14G A17G U90A C149U and U7G C18G A39U U61A U90G U102C A119U G124A C125U A142U cannot be ordered by “polymerase ribozyme fitness (log ratio)” value: at most -4.2 for the first, at most -4.2 for the second.

C8G A29C G34C U78G G86U A97C C149U and C8A G34U C76A G86A C118G cannot be ordered by “polymerase ribozyme fitness (log ratio)” value: at most -4.2 for the first, at most -4.2 for the second.

U9A A39U G48A G84U C99A G117U and U9A A39C U53G G92A G112C A113G C149G cannot be ordered by “polymerase ribozyme fitness (log ratio)” value: at most -4.2 for the first, at most -4.2 for the second.

C8U C14A C38U G59U G94U C116G and C8U A52G C85A A119U U130G cannot be ordered by “polymerase ribozyme fitness (log ratio)” value: at most -4.2 for the first, at most -4.2 for the second.

U7C U15C A20G A40U U56A G59A G71A A138U U139A G143A and U7G U56A C76A G84A G128A cannot be ordered by “polymerase ribozyme fitness (log ratio)” value: at most -4.2 for the first, at most -4.2 for the second.

U7C G46A G50A C95U A97G A98G U102A C131U and C8A U9C G11U A24U G50C C57U G58U C87G U90A G94A U127G cannot be ordered by “polymerase ribozyme fitness (log ratio)” value: at most -4.2 for the first, at most -4.2 for the second.

U9A C10G U31A C38G U90A G141C and C8U G46U G59A cannot be ordered by “polymerase ribozyme fitness (log ratio)” value: at most -4.2 for the first, at most -4.2 for the second.

C8A A19G C36U U77G G126U G141U and C8G A23U A49G C75G C87A C103U G143U cannot be ordered by “polymerase ribozyme fitness (log ratio)” value: at most -4.2 for the first, at most -4.2 for the second.

C8U C43U U44A G92U A113U U148C and C8A C32A G59C C85G C95U A106U A107G cannot be ordered by “polymerase ribozyme fitness (log ratio)” value: at most -4.2 for the first, at most -4.2 for the second.

C8U A12C A52U G136U and U7C C69G G86A A113U G140A G141C cannot be ordered by “polymerase ribozyme fitness (log ratio)” value: at most -4.2 for the first, at most -4.2 for the second.

C8U A29U A52C G86U A106G and C8A C75A G88A U145G A150G cannot be ordered by “polymerase ribozyme fitness (log ratio)” value: at most -4.2 for the first, at most -4.2 for the second.

C8G A26C A39G G50U G92A C118A U148G and C8U A19U A29C A52U C76U C79U C118A A137G cannot be ordered by “polymerase ribozyme fitness (log ratio)” value: at most -4.2 for the first, at most -4.2 for the second.

C8A A19U G84U A106C G117U G124A and U7C C32G U53A G94C C105U cannot be ordered by “polymerase ribozyme fitness (log ratio)” value: at most -4.2 for the first, at most -4.2 for the second.

C8A C54U C75G G92A A98G A106U and C8A G25C C76A G83A A119G cannot be ordered by “polymerase ribozyme fitness (log ratio)” value: at most -4.2 for the first, at most -4.2 for the second.

Compared with U7C G48C C85U, C8A C14G U53C G58A G62C C85G is lower in “polymerase ribozyme fitness (log ratio)” value: -3.27 for the first, at most -4.2 for the second.

U7G A60U C93A and C8A A17U A40C C116U cannot be ordered by “polymerase ribozyme fitness (log ratio)” value: at most -4.2 for the first, at most -4.2 for the second.

C8A A66C G83U G92C U104A C114A and C8A A20U G86U A89U U90G C93U cannot be ordered by “polymerase ribozyme fitness (log ratio)” value: at most -4.2 for the first, at most -4.2 for the second.

C8G U13C A16G A52G G83A U101G G126A and C8G C54G G94C A98G cannot be ordered by “polymerase ribozyme fitness (log ratio)” value: at most -4.2 for the first, at most -4.2 for the second.

Compared with C8U G59C, U9A A26G A66C A122U A137U G143C U145A is lower in “polymerase ribozyme fitness (log ratio)” value: -2.99 for the first, at most -4.2 for the second.

Going from C8U G83C to C8G A24G A26C U53A C75U C95U C96U C114U A150U, the “polymerase ribozyme fitness (log ratio)” value falls from -2.8 to at most -4.2.

C8A U13A A40C C79U and C8U A16U A49C A73C C85U C108G cannot be ordered by “polymerase ribozyme fitness (log ratio)” value: at most -4.2 for the first, at most -4.2 for the second.

C8G C35U A40U C95U C149A and C8U G50U C85U U127A cannot be ordered by “polymerase ribozyme fitness (log ratio)” value: at most -4.2 for the first, at most -4.2 for the second.

U9A C51A U55A G83C and C8G A12C A19U C57U C72G C87G C108U A120C cannot be ordered by “polymerase ribozyme fitness (log ratio)” value: at most -4.2 for the first, at most -4.2 for the second.

U7G G11C A29C U82G C95U U109G and C8G A21U C35G U45C C108G U148G cannot be ordered by “polymerase ribozyme fitness (log ratio)” value: at most -4.2 for the first, at most -4.2 for the second.

First: C8U C36G A49U U55A C95A A120C A138G G143U
Second: U9A A47C
The “polymerase ribozyme fitness (log ratio)” value of the first is lower: at most -4.2 for the first, -4.13 for the second.

C8U U44A A52U C75U C85U C95U U104C A138G G140U and U7G A26G C93G C108G cannot be ordered by “polymerase ribozyme fitness (log ratio)” value: at most -4.2 for the first, at most -4.2 for the second.

Going from U7G C85U to U7G C14G G68U C131A, the “polymerase ribozyme fitness (log ratio)” value falls from -2.79 to at most -4.2.

U7C G50C C96U U134A and C8G A24C A30U A37C C116U cannot be ordered by “polymerase ribozyme fitness (log ratio)” value: at most -4.2 for the first, at most -4.2 for the second.

C8U C38A A52C U55A G68A G83U A138G and C8U G58U A60G A137C cannot be ordered by “polymerase ribozyme fitness (log ratio)” value: at most -4.2 for the first, at most -4.2 for the second.

C8A C43A A60U C95U C96A U104G C105U G140C G143A and C8U G81U C95U cannot be ordered by “polymerase ribozyme fitness (log ratio)” value: at most -4.2 for the first, at most -4.2 for the second.

C8G A40G U56G G70C C85G A115G A119G G141U A147C and U9A A16G C54U C75U C76A A120U cannot be ordered by “polymerase ribozyme fitness (log ratio)” value: at most -4.2 for the first, at most -4.2 for the second.

C8G A24G C54U G68A G71A A91U C95A and C8G U77A A107U U146C cannot be ordered by “polymerase ribozyme fitness (log ratio)” value: at most -4.2 for the first, at most -4.2 for the second.

C8U A12C C35U A49C U53G C75G G92A A119U A120G G133U A138C and C8G A28G U77G U134A cannot be ordered by “polymerase ribozyme fitness (log ratio)” value: at most -4.2 for the first, at most -4.2 for the second.
